# The RNAGym collection of RNA variant scans (doi:10.7554/elife.90254)
# The source gives no read counts; variants with many changes may rest on few reads.
# B1: LINE1-mini (parent)
# chain: GGCAGAGCUCAACACAGCGUGGCAAAGUGGCUGUGGCUAGACUGCC
# Variants of: B1
# Test: self-cleavage, relative activity (ratio to wild type); higher = more cleavage; in vitro, sequencing; the parent is a self-cleaving ribozyme
row,Variant,self-cleavage
1,G7A A11U A16C,0.02
2,A6U G7U A16G G35A A41U,0.13
3,A6U G7A C8U C13U A39C,2.2
4,A6U G27A C37U,0.09
5,A6U U20G C31A C37A,0.04
6,A6U G30C C46U,1.41
7,G7A C8A G19C G29U U34C G40U,0.11
8,G7A A11U U20C C37A A41C,0.02
9,G7A A11C C18G C31G,0.01
10,G7A A16C G27A C45G,0.33
11,G7A A12U U43A,0.12
12,G7A A11C C23A,0.03
13,A6U G7A A25U G36A A41G U43C,1.04
14,A6U G27C G30U C42U,0.19
15,A6U U20G G30A A39C,0.29
16,G7A A25C G30A,0.19
17,A6U G21A G27C A39C,0.46
18,G7A A24C U38G,0.01
19,A6U C23U A26G G30U C37U,0.05
20,G7A A12G C18U U32A C46A,0.16
21,G7A A24C G30C,0.36
22,A6U G7A A14G,0.1
23,A6U C15G A26G,0.01
24,G7A A14C G27U G29A,0.47

row,Variant,self-cleavage
1,A6U G36A G40U,1.07
2,A6U C18A A26G,0.51
3,G7A C8A A11U C37G,0
4,A6U C18G G40C,0.03
5,A6U C18A U32A,0.06
6,G7A C8G U43C,0.39
7,A6U C15A A16C C46A,0.02
8,A6U G40U A41G,0.1
9,A6U U34G C46A,0.18
10,G7A A26U G40U,0.27
11,G7A A11U G27U U32C G35U U38A,0.01
12,A6U G7A C37A C42A,0.06
13,A6U G21U A39U G40A,0.31
14,A6U C23U U28A U34A C42A C45A,0.06
15,G7A A12U C15G,0.13
16,A6U G7A C18G G27U,0.2
17,A6U G19A C23U G40U,0.15
18,A6U C15U U32A C42A G44A,0.05
19,A6U G21A C37A U38A,0.06
20,A6U C15A C42A,0.07
21,A6U U38G G40C,0
22,A6U G21C G33A G40U,0.33
23,G7A C8U C15A,0.36
24,A6U G21A G22C A26C G27A,0.13

row,Variant,self-cleavage
1,A6U U9A U20G,0.09
2,A6U U9C U43A,0.03
3,A6U U32A G35A,0.01
4,A6U U20A A25C G27U G29U G40C,0.02
5,G7A C8G G17C G21U G22C A24G,0.03
6,A6U C15G G29C U38A,0.18
7,G7A A41G U43A,0.13
8,A6U G21A A25U C37A,0.06
9,A6U C18G A39U,0.17
10,A6U G7C A12G A14C G35U A39C,0.09
11,G7A A25C G29C,0.05
12,A6U G17A C18U U32A,0.09
13,G7A A16C C23U G29C U34C C45U,0.11
14,A6U G7C C8U U38C,0.54
15,A6U C18U G21A C37U,0.04
16,G7A A12U U20C G27A,0.15
17,A6U C15A G21C,0.15
18,A6U G40U G44C,0.86
19,G7A A26U G36A,1.08
20,G7A C8A C10G A26G C45G C46G,0.01
21,A6U C15A U20C,0.03
22,G7A A12G U28C,1.57
23,A6U G30U G33U U43C,0.95
24,G7A C8U A16G G30A G33A,0.14

row,Variant,self-cleavage
1,G7A A14U G29U,0.2
2,A6U G29U G35C G40U,0.08
3,A6U G33U C42A,0.04
4,G7A C8A U9A G19A,0.22
5,A6U G17U G36C,0.02
6,G7A A25G G36C C37U G40A C46U,0.17
7,A6U C15U G33U G36U,0.06
8,A6U U28C G36U A39C,0
9,A6U G36U A39U,0.1
10,G7A A26U G27A,0.13
11,G7A C8G G36C,0.07
12,G7A A14G C15A G33U U43A,0.07
13,G7A C8U G19U G29C,0.03
14,A6U U9C G22U,0.11
15,A6U G19U U32C C42G,0.1
16,G7A C8G A16U U20A,0.07
17,A6U G35U C46U,0.17
18,G7A C8U C37G G40A,0.06
19,A6U G21U A24G A25C G27U,0.07
20,A6U G7C G35A A41C C46U,0.02
21,G7A C8U C37A G40U A41C,0.05
22,A6U C15U A24U U32C C37G A39G,0.1
23,A6U U20A C31U A39U C42U,0.05
24,G7A A11U C13U,0.03

row,Variant,self-cleavage
1,A6U G33U U38C G40A C42A,0.03
2,A6U C23A A25G U38C,0.53
3,A6U G21U G36U,0.03
4,A6U G21U G36C,0.17
5,G7A A14U G44C,0.5
6,G7A A24C G36A C46U,0.12
7,A6U U20C G40A,0.34
8,G7A C8U C18U G44A C45A,0.12
9,A6U G21A A26G U34G,0.13
10,A6U C15A G29C,0.53
11,G7A A14U A25C C31U G35A,0.19
12,A6U G22C C31G U34C,0.05
13,G7A A26C G30A C46G,0.15
14,A6U U9A A14C C15U A26U G40A,0.12
15,A6U U32A A39U,0.2
16,A6U G27C G40C,0.03
17,G7A A16C G21C A26C U34C U38A,0.03
18,G7A A12C G44C,0.05
19,G7A A12U C18U A25C G30U,0.01
20,A6U G17A G21A G27A U28G C31G,0.13
21,A6U U32G C46U,0.04
22,A6U C15G C18U C23A G30U G33A,0.04
23,A6U G22U G40C G44A,0.3
24,G7A A12C C46G,0.02

row,Variant,self-cleavage
1,A6U C15A C31U,0.12
2,A6U C15A G17C G33U,0.02
3,G7A A16U G17U A24G,0.19
4,A6U U9A C10U G19C G27U,0.06
5,A6U G17U G19C A24G G36C C37A C42G C45A,0.03
6,A6U U9C A26C G30A C37U,0.06
7,A6U G19U U20A G44C,0.63
8,G7A A11U A25G,0.06
9,A6U C15A C46A,0.15
10,A6U G22C G33U U38A,0.14
11,G7A A26U U34C G35U,0.14
12,G7A A11G G29U,0.02
13,A6U G7A G44U,0.55
14,G7A A14G C18G G36U A39C,0.2
15,G7A A14U G40A A41C C46G,0.69
16,G7A A11C A24G,0.02
17,A6U C23A G29C U38A,0.01
18,A6U G21C A39C,0.12
19,G7A C8G A14U,0.03
20,A6U C23U C37U G40U,0.34
21,A6U G30C U43A,0.03
22,G7A A11C G19C A24C,0
23,G7A C8U A24U C31U,0.19
24,A6U C15U G40C,0.25

row,Variant,self-cleavage
1,A6U C15U G40U,0.21
2,A6U C31G A41G C45G,0.07
3,A6U U9C G21U,0.04
4,G7A A14C A41C,0.04
5,A6U G27U G30U U32C U34G G35A,0.07
6,G7A A12U C13A G27U U32C C37G,0.03
7,G7A A12C A14C G44C,0.04
8,G7A A14U G27C A41C G44A,0.04
9,A6U G19U A39G,0.16
10,G7A C8G G27A,0.04
11,G7A C8U C10A C45A,0.02
12,A6U C23G A39U,0.25
13,G7A C8A U20G A25C A41C,0.15
14,A6U G22C A39G,0.15
15,A6U U32C C37U,0.02
16,A6U G19A G21A U28C,1.13
17,G7A C8A U9A C10U A14G U34C A39C,0.02
18,G7A C8A U9C G40C A41C,0.09
19,G7A A16C U20G,0.05
20,A6U G29C A39G,0.07
21,A6U U9G C23U A26C,0.02
22,A6U G21C C37A,0.04
23,A6U G17U U20G G36A,0.03
